According to the supplement of paper PMC7125110:
± gives the standard error. Variants at the background level are over-represented here.

B1: glmS ribozyme (parent)
chain: AUAAAAGCGCCAGAACUACAGAAAUGUAGUUGACGAGGAGGAGGUUUAUCGAAUUUUCGGCGGAUGCCUCCAAA

Assays:
Conditions in all cases: with glucosamine-6-phosphate
glucosamine-6-phosphate [1] = variants of: B1; test: self-cleavage kobs at 40 uM GlcN6P; higher = faster cleavage; RNA array
How it was run: (§1)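 The measurements used barcoded ribozyme variants on sequenced MiSeq chips, transcribed in situ by E. coli RNA polymerase and tracked at 37 °C with a hybridised Cy3 probe. Glucosamine-6-phosphate, 40 μM to 10 mM in HEPES/KCl/Mg(OAc)2 buffer, was flowed in while tiles were imaged over ~14 h. Baseline-normalised signals, also normalised to non-cleaving reference variants, gave per-tile medians that were fit to one- or two-exponential decays for kobs. kcat and KM resulted from weighted Michaelis–Menten fits across concentrations.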

glucosamine-6-phosphate [2] = variants of: B1; test: self-cleavage kobs at 640 uM GlcN6P; higher = faster cleavage; RNA array
How it was run: as §1

glucosamine-6-phosphate [3] = variants of: B1; test: self-cleavage kobs at 160 uM GlcN6P; higher = faster cleavage; RNA array
How it was run: as §1

glucosamine-6-phosphate [4] = variants of: B1; test: self-cleavage kobs at 2500 uM GlcN6P; higher = faster cleavage; RNA array
How it was run: as §1

glucosamine-6-phosphate [5] = variants of: B1; test: self-cleavage kobs at 10000 uM GlcN6P; higher = faster cleavage; RNA array
How it was run: as §1

Row | Variant | self-cleavage kobs at 40 uM GlcN6P (glucosamine-6-phosphate [1]) [s⁻¹] | self-cleavage kobs at 640 uM GlcN6P (glucosamine-6-phosphate [2]) [s⁻¹] | self-cleavage kobs at 160 uM GlcN6P (glucosamine-6-phosphate [3]) [s⁻¹] | self-cleavage kobs at 2500 uM GlcN6P (glucosamine-6-phosphate [4]) [s⁻¹] | self-cleavage kobs at 10000 uM GlcN6P (glucosamine-6-phosphate [5]) [s⁻¹]
1 | AUAAAAGCGCCACAACUACAGAAAUGUAGUUGACGAGGAGGAGGUUUAUUGAAUUUUCGGCGGAUGCCUCCAAA [G13C C50U] | < 1e-05 | < 1e-05 | < 1e-05 | < 1e-05 | < 1e-05
2 | AUAAAAGCGCCAAAACUACAGAAAUGUAGUUGACGAGGAGGAGGUUUAUCGAAUUUUCGGCUGAUGCCUUCAAA [G13A G62U C70U] | < 1e-05 |  |  |  | < 1e-05
3 | AUAAAAGCGCCAGCACUACAGAAAUGUAGUUGUCGAGGAGGAGGUUUAUCGAAUUUUCGGCGGAUGCCUCCAAA [A14C A33U] | < 1e-05 |  |  |  | 
4 | AUAAAAGCGCCAUAACUACAGAAAUGUAGUUGACGAGGAGGAGGUUUAUGGAAUUUUCGGCGGAUGCCUCCAAA [G13U C50G] | 4.61e-05 ± 1.2e-05 | 6.9e-05 ± 1.6e-05 | 8.07e-05 ± 1.7e-05 | 5.61e-05 ± 1.2e-05 | 
5 | AUAAAAGCGCCAGCACUACAGAAAUGUAGUUGAUGCGGAGGAGGUUUAUCGAAAUUUCGGCGGAGGCCUCCAAA [A14C C34U A36C U54A U65G] | < 1e-05 |  | < 1e-05 | < 1e-05 | 
6 | AUAAAAGCGCCAGCACUACAGAAAUGUAGUUGACGAGGAGGAGGUUUAUCGAGUUUUCGGCGGAUGCCUCCAAA [A14C A53G] | 0.00012 ± 1.8e-05 |  |  |  | 
7 | AUAAAAGCGCCACAACUACAGAAAUGUAGUUGACGAGGAAGAGGUUUAUCGAAUUUUCGGCGGAUGCAUCCAAA [G13C G40A C68A] | < 1e-05 |  |  |  | < 1e-05
8 | AUAAAAGCGCCAUAACUACAGAAAUGUACUUGACGAGGAGGAGGUUUCUCGAAUUUUCGGCAGAUGCCUCGAAA [G13U G29C A48C G62A C71G] | < 1e-05 |  |  |  | 
9 | AUAAAAGCGCCAGCACUACAGAAAUGUAAUUGACGAGGAGGAGCUUUUUCGAAUUUUCGGCGGAUGCCUCCAAA [A14C G29A G44C A48U] | < 1e-05 |  |  | < 1e-05 | 
10 | AUAAAAGCGCCACAACUACAGAAAUGUAGUUGACGAGGAGGAGAUUUAUCGAAUUUUCGGCGGAUGCCUCCAAA [G13C G44A] | < 1e-05 | < 1e-05 | < 1e-05 |  | < 1e-05
11 | AUAAAAGCGCCAGCAUUACAGAAAUGUAGUUGACGAGGAGGAGGUUUAUCGAAUUUUCGGCGGAUGCCUCCAAA [A14C C16U] | 5.34e-05 ± 1.1e-05 | 0.000451 ± 4.8e-05 | 0.000144 ± 1.9e-05 | 0.000655 ± 7.7e-05 | 0.00118 ± 0.00016
12 | AUAAAAGCGCCAUAACUACAGAAAUGUAGUUGACGAGGAGGAGGUUUAUCGAAUUUUCGGCGAAUGCCUCCAAA [G13U G63A] | < 1e-05 | < 1e-05 |  |  | < 1e-05
13 | AUAAAAGCGCCACAACUACAGAAAUGUAGUGGACGAGGAGGAGGUUUUUCGAAUUUUCGGCGGAUGCCUCCAAA [G13C U31G A48U] | < 1e-05 |  |  |  | 
14 | AUAAAAGCGCCACAACUACAGAAAUGUAGUUGAGGAGGAGGAGGUUUAGCUAAUUUUCGGCGGAUGCCUCCAAA [G13C C34G U49G G51U] | < 1e-05 |  |  | < 1e-05 | 
15 | AUAAAAGCGCCACAAAUACAGAAAUGUAGUUGACGAGGAGGAGGUUUAUCGAAUUUUCGGCGGAUGCCUCCAAA [G13C C16A] | < 1e-05 |  | < 1e-05 |  | 
